IC50 is the fitted dose that halves viability relative to control wells, and lower means more sensitive; a limit (>, <) means that the fit lies beyond the doses tested. The AUC spans the tested range (256-fold, ending at the top dose) of the same fit; values near 1 show little effect. For part of these data: Where the top dose is marked as inferred, it was calculated from the reported fits. For part of these data: Where an entry number is given, a second screen of the drug exists; the two often differ.
Tests used:
Assay in all cases: Viability of human cancer cell lines after 72 h of drug (GDSC screen)
Docetaxel = compound: CC(=O)O[C@@]12CO[C@@H]1C[C@H](O)[C@@]1(C)C(=O)[C@H](O)C3=C(C)[C@@H](OC(=O)[C@H](O)[C@@H](NC(=O)OC(C)(C)C)c4ccccc4)C[C@@](O)([C@@H](OC(=O)c4ccccc4)[C@H]21)C3(C)C [Docetaxel]; details: top dose 0.0125 µM
Procedure: (§1)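 Human cancer cell lines in 384-well plates, medium with 10% serum, drug for 72 h over a 256-fold dose range (nine 2-fold or five 4-fold steps up to the top dose). Adherent lines were fixed and stained with the nucleic acid dye Syto60, suspension lines read with resazurin; signal relative to control wells, capped at 0 and 100%. One two-parameter sigmoid per drug and line, fitted in a mixed model over all curves with the slope shared within a line.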

Cyclopamine = compound: CC1=C2C[C@H]3[C@@H](CC=C4C[C@@H](O)CC[C@@]43C)[C@@H]2CC[C@]12O[C@@H]1C[C@H](C)CN[C@H]1[C@H]2C [Cyclopamine]; details: top dose 16 µM; top dose inferred
Procedure: as §1

NSC-207895 = compound: CN1CCN(c2ccc([N+](=O)[O-])c3no[n+]([O-])c23)CC1 [NSC-207895]; details: top dose 20 µM; top dose inferred
Procedure: as §1

FTI-277 = compound: COC(=O)[C@H](CCSC)NC(=O)c1ccc(NC[C@@H](N)CS)cc1-c1ccccc1 [FTI-277]; details: top dose 1.024 µM; top dose inferred
Procedure: as §1

YM155 = compound: COCC[n+]1c2c(n(Cc3cnccn3)c1C)C(=O)c1ccccc1C2=O [YM155]; details: top dose 5.12 µM
Procedure: as §1

NVP-TAE684 = compound: COc1cc(N2CCC(N3CCN(C)CC3)CC2)ccc1Nc1ncc(Cl)c(Nc2ccccc2S(=O)(=O)C(C)C)n1 [NVP-TAE684]; details: top dose 2 µM
Procedure: as §1

OSI-906 = compound: C[C@]1(O)C[C@@H](c2nc(-c3ccc4ccc(-c5ccccc5)nc4c3)c3c(N)nccn32)C1 [OSI-906]; details: top dose 2.56 µM; top dose inferred
Procedure: as §1

PHA-665752 = compound: Cc1[nH]c(/C=C2\C(=O)Nc3ccc(S(=O)(=O)Cc4c(Cl)cccc4Cl)cc32)c(C)c1C(=O)N1CCC[C@@H]1CN1CCCC1 [PHA-665752]; details: top dose 2 µM
Procedure: as §1

SB-715992 = compound: Cc1ccc(C(=O)N(CCCN)[C@@H](c2nc3cc(Cl)ccc3c(=O)n2Cc2ccccc2)C(C)C)cc1 [SB-715992]; details: top dose 0.128 µM; top dose inferred
Procedure: as §1

JQ1 = compound: Cc1sc2c(c1C)C(c1ccc(Cl)cc1)=N[C@@H](CC(=O)OC(C)(C)C)c1nnc(C)n1-2 [JQ1]
Procedure: as §1

Belinostat = compound: O=C(/C=C/c1cccc(S(=O)(=O)Nc2ccccc2)c1)NO [Belinostat]; details: top dose 20 µM; top dose inferred
Procedure: as §1

CGP-60474 = compound: OCCCNc1cc(-c2ccnc(Nc3cccc(Cl)c3)n2)ccn1 [CGP-60474]; details: top dose 0.256 µM; top dose inferred
Procedure: as §1

JNJ-26854165 = compound: c1ccc2c(CCNc3ccc(Nc4ccncc4)cc3)c[nH]c2c1 [JNJ-26854165]; details: top dose 10 µM
Procedure: as §1

AMG-706 = compound: CC1(C)CNc2cc(NC(=O)c3cccnc3NCc3ccncc3)ccc21 [AMG-706]; details: top dose 2 µM; top dose inferred
Procedure: as §1

JNK Inhibitor VIII = compound: CCOc1nc(NC(=O)Cc2cc(OC)ccc2OC)cc(N)c1C#N [JNK Inhibitor VIII]; details: top dose 10 µM; top dose inferred
Procedure: as §1

[1] = top dose 1 µM, screen: GDSC drug entry 1218, top dose inferred
[2] = top dose 2.56 µM, screen: GDSC drug entry 163

| Cell Line | AUC (Docetaxel) | IC50 (Docetaxel) [nM] | AUC (Cyclopamine) | IC50 (Cyclopamine) [nM] | AUC (NSC-207895) | IC50 (NSC-207895) [nM] | AUC (FTI-277) | IC50 (FTI-277) [nM] | AUC (YM155) | IC50 (YM155) [nM] | AUC (NVP-TAE684) | IC50 (NVP-TAE684) [nM] | AUC (OSI-906) | IC50 (OSI-906) [nM] | AUC (PHA-665752) | IC50 (PHA-665752) [nM] | AUC (SB-715992) | IC50 (SB-715992) [nM] | AUC (JQ1; [1]) | IC50 (JQ1; [1]) [nM] | AUC (JQ1; [2]) | IC50 (JQ1; [2]) [nM] | AUC (Belinostat) | IC50 (Belinostat) [nM] | AUC (CGP-60474) | IC50 (CGP-60474) [nM] | AUC (JNJ-26854165) | IC50 (JNJ-26854165) [nM] | AUC (AMG-706) | IC50 (AMG-706) [nM] | AUC (JNK Inhibitor VIII) | IC50 (JNK Inhibitor VIII) [nM] |
| --- | --- | --- | --- | --- | --- | --- | --- | --- | --- | --- | --- | --- | --- | --- | --- | --- | --- | --- | --- | --- | --- | --- | --- | --- | --- | --- | --- | --- | --- | --- | --- | --- |
| LS-123 (large intestine, adherent) | 0.803 | 8.82 | 0.978 | > 16000 | 0.935 | > 20000 | 0.976 | > 1020 | 0.048 | < 20 | 0.84 | > 2000 | 0.928 | > 2560 | 0.968 | > 2000 | 0.962 | > 128 | 0.972 | > 1000 | 0.918 | > 2560 | 0.462 | 954 | 0.716 | 81.1 | 0.911 | > 10000 | – | – | – | – |
| NB1 (neuroblastoma, semi-adherent) | 0.798 | 6.68 | 0.972 | > 16000 | 0.87 | > 20000 | 0.971 | > 1020 | 0.346 | 114 | 0.094 | < 7.81 | 0.917 | > 2560 | 0.98 | > 2000 | – | – | 0.982 | > 1000 | 0.835 | 1940 | 0.816 | 12500 | 0.723 | 73.8 | 0.892 | > 10000 | 0.963 | > 2000 | 0.97 | > 10000 |
| NB14 (neuroblastoma, adherent) | 0.506 | 0.812 | 0.982 | > 16000 | 0.985 | > 20000 | 0.983 | > 1020 | – | – | 0.662 | 343 | 0.769 | 910 | 0.956 | > 2000 | 0.883 | 123 | 0.988 | > 1000 | 0.612 | 319 | – | – | 0.922 | > 256 | 0.824 | 5480 | 0.927 | > 2000 | 0.948 | > 10000 |
| NCI-H716 (large intestine, suspension) | 0.982 | > 12.5 | 0.98 | > 16000 | 0.961 | > 20000 | 0.981 | > 1020 | 0.754 | 2140 | 0.729 | 676 | 0.944 | > 2560 | 0.97 | > 2000 | 0.85 | > 128 | 0.738 | 364 | 0.909 | > 2560 | 0.587 | 2310 | 0.959 | > 256 | 0.932 | > 10000 | – | – | – | – |
| NMC-G1 (glioma, adherent) | 0.472 | 0.644 | 0.981 | > 16000 | 0.927 | > 20000 | 0.943 | > 1020 | 0.055 | < 20 | 0.74 | 726 | 0.819 | 1900 | 0.98 | > 2000 | 0.895 | > 128 | – | – | – | – | 0.525 | 1480 | 0.599 | 31.8 | 0.814 | 7090 | 0.982 | > 2000 | 0.981 | > 10000 |
| RS4-11 (leukaemia, suspension) | – | – | 0.925 | > 16000 | 0.786 | 7840 | 0.975 | > 1020 | 0.02 | < 20 | 0.94 | > 2000 | 0.592 | 280 | 0.943 | > 2000 | 0.554 | 11.1 | – | – | – | – | 0.168 | 138 | 0.732 | 68.2 | 0.798 | 4290 | 0.989 | > 2000 | 0.986 | > 10000 |
| SH-4 (melanoma, adherent) | – | – | 0.956 | > 16000 | 0.964 | > 20000 | 0.969 | > 1020 | 0.288 | 57.1 | 0.8 | 1680 | 0.915 | > 2560 | 0.968 | > 2000 | 0.957 | > 128 | 0.97 | > 1000 | 0.506 | 168 | 0.697 | 6130 | 0.796 | 207 | 0.851 | > 10000 | 0.973 | > 2000 | 0.975 | > 10000 |
| WSU-NHL (lymphoid neoplasm, suspension) | – | – | 0.989 | > 16000 | 0.99 | > 20000 | 0.986 | > 1020 | 0.113 | 22.6 | 0.94 | > 2000 | 0.915 | > 2560 | 0.99 | > 2000 | 0.865 | 91.6 | 0.989 | > 1000 | 0.837 | 1430 | 0.414 | 749 | 0.958 | > 256 | 0.851 | 6290 | 0.99 | > 2000 | 0.99 | > 10000 |
